PubChem BioAssay AID1346428 (National Center for Advancing Translational Sciences (NCATS), 2018)
Several values for one entry are separate records, joined by “and”; a condition that tells them apart may be missing. Identical values can stand only once. In all, about 48,000 compounds went through this assay and about 1,200 (2.5%) were called active. Not shown: some 2% with an inconclusive outcome.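 The calls were made as follows: active = activation of at least 60% and not above a set upper limit (about 1 call in 100 departs from these limits); inconclusive = activation of 40% to 60%, or above that upper limit; inactive = activation under 40%.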 Some of the results follow.

The compounds below were run against Probable G-protein coupled receptor 32 (Homo sapiens) (UniProt O75388) (assay: qHTS for Agonists of Human Resolvin D1 Receptor DRV1). Conditions: CHO-K1 GPR32 beta-arrestin PathHunter luminescence, 90 min; at 76.9 µM; hits give high values; zero percent set by DMSO-only wells.
Chain of UniProt O75388 (O75388 whole entry, looked up, the tested form may be a part): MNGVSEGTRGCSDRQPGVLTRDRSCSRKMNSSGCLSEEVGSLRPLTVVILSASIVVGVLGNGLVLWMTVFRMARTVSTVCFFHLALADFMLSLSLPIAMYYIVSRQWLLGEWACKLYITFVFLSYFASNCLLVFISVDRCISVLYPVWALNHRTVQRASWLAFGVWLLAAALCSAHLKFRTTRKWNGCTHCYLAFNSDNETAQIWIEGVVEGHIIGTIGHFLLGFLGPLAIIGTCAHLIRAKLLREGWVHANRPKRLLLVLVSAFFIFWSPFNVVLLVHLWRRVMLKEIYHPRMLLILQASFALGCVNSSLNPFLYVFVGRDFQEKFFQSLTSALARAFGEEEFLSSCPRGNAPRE
In short: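 Agonism was scored as beta-arrestin recruitment to ProLink-fused GPR32 in stably transfected CHO-K1 cells, giving a chemiluminescent beta-Gal signal; compounds were incubated 90 min at 37 °C.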
Also: 0% is about no effect.

SMILES | activation
Cc1ccc(C)c(Nc2nnc(-c3ccc(C)c(S(=O)(=O)NCC4CCCO4)c3)c3ccccc23)c1 (configuration not stated) | inactive: -9.07%
CCOc1ccc(N2C(=O)c3[nH]nc(-c4ccc(OC)cc4)c3C2c2cccs2)cc1 (configuration not stated) | inactive: 17.3%
COc1ccc(-c2nnc(SCC(=O)Nc3ccc(C)c(C)c3)s2)cc1 | active: 115%
COCCCNC(=O)c1ccc2c(c1)N(Cc1ccccc1F)C(=O)c1ccccc1S2=O (configuration not stated) | inactive: -28%
COc1ccc(O)c(C2=Nc3ccccc3N=C(c3ccccc3)C2)c1 | inactive: -5.83%
COc1ccc(-c2noc(CSc3nnc(C)n3-c3cccc(C)c3)n2)cc1 | inactive: 8.23%
COc1ccccc1NC(=O)c1oc2ccccc2c1NC(=O)Cc1ccccc1 | inactive: 3.24%
CCOC(=O)c1nc(Nc2ccc(C(=O)OC(C)C)cc2)c2ccccc2n1 | inactive: 32.2%
CNC(=O)c1ccc2c(c1)N(Cc1cc(C)ccc1C)C(=O)c1ccccc1S2 | inactive: -35%
O=C(CN1C(=O)CC(c2ccccc2)=Nc2ccccc21)Nc1ccc(Br)cc1 | inactive: -24.5%
COc1ccc(CNC(=O)c2ccc(-c3nc(CSc4ccc(C)cc4)c(C)o3)cc2)c(OC)c1 | inactive: -4.86%
Cc1cccc(CCNC(=O)c2cc3c(s2)-c2c(C)cccc2OC3)c1 | inactive: -6.78%
O=C(NCCc1ccccc1)c1ccc(Nc2nc3ccccc3n3nnnc23)cc1 | inactive: 6.42%
CCCN1CCN(C(=O)Cn2c(-c3cccs3)cc3cc(F)ccc32)CC1 | inactive: 17.2%
Cc1ccc2c(c1)N(C(=O)Nc1cccc3c1CCCC3)CCO2 | inactive: -28.3%
COc1ccc(C2c3c(n(C)c4ccccc34)C(=O)N2CC(=O)Nc2cccc(Cl)c2)cc1 (configuration not stated) | inactive: -19.9%
CCOC(=O)c1c(NC(=O)CSc2cn(CCNC(=O)c3ccc(OC)cc3)c3ccccc23)sc2c1CCCC2 | inactive: -2.48%
Cc1ccccc1C(=O)Nc1cccc(OCc2cc(=O)n3cccc(C)c3n2)c1 | inactive: -11.9%
Cc1cc(OC(C)C(=O)N(Cc2ccc(N(C)C)cc2)Cc2ccco2)ccc1Cl (configuration not stated) | inactive: -27.4%
CC1CCCN(CCCNC(=O)c2ccc3c(c2)N(Cc2ccc(Cl)cc2)C(=O)c2ccccc2S3(=O)=O)C1 (configuration not stated) | inactive: -25.5%
CCc1ccc(NC(=O)CN2C(=O)CSc3ccc(S(=O)(=O)N(C)C)cc32)cc1 | inactive: -16.4%
Cc1ccc(C)c(NC(=O)Cn2cc(S(=O)(=O)Cc3cccc(Cl)c3)c3ccccc32)c1 | inactive: -3.5%
O=C(NCc1ccccc1)c1ccc2c(c1)CCN2S(=O)(=O)c1ccc(Cl)cc1 | inactive: -6.9%
CCOc1ccc(NC(=O)N2CCN(c3ccc(Cl)c(Cl)c3)CC2)cc1 | inactive: 5.26%
CC(=O)O[C@]1(C(C)=O)CC[C@H]2[C@@H]3C=C(Cl)C4=CC(=O)CC[C@]4(C)[C@H]3CC[C@@]21C | inactive: -30.2%
COc1ccc2cc3c(N)nn(C(=O)c4ccccc4Cl)c3nc2c1 | inactive: 16%

SMILES | activation
COc1ccc(-c2noc(CN(C(=O)C(C)Oc3ccc(C)cc3)C(C)C)n2)cc1 (configuration not stated) | inactive: -19.5%
CCn1cc(C(=O)NCCc2ccc(OC)c(OC)c2)c(=O)c2cc(S(=O)(=O)N(C)C3CCCCC3)ccc21 | inactive: -31.6%
CC(C)Oc1ccc(C(=O)N(Cc2ccc(N(C)C)cc2)C2CCS(=O)(=O)C2)cc1 (configuration not stated) | inactive: -26.6%
CCCNC(=O)NS(=O)(=O)c1ccc(Cl)cc1 | inactive: -8.36% and inactive: 9.48%
CCN(CC)C(C)CN1c2ccccc2Sc2ccccc21 (configuration not stated) | inactive: 21.5% and inactive: 45.8%
CCc1ccc(NCc2cc3ccc(OC)cc3n(CC(=O)Nc3c(C)cc(C)cc3C)c2=O)cc1 | inactive: -20.3%
CCOc1cccc(CNC(=O)c2ccc(N3CCCC3)c(NC(=O)NCc3ccccc3)c2)c1 | inactive: -28.7%
Cc1ccccc1CNC(=O)CCS(=O)(=O)c1cc2c3c(c1)CCN3C(=O)CC2 | inactive: -23.2%
COc1ccc(Cl)cc1NC(=O)Cn1ccn(-c2cc(C)cc(C)c2)c(=O)c1=O | inactive: -11.6%
Cn1nnc2c(N3CCN(c4ccc(F)cc4)CC3)ncnc21 | inactive: 8.4%
Cc1ccc(Nc2sc(C(=O)c3ccccc3)c(N)c2S(=O)(=O)c2ccccc2)cc1Cl | inactive: -43%
Cc1ccc(N2CCN(C(=O)c3cc4cc5ccc(C)cc5nc4s3)CC2C)cc1 (configuration not stated) | inactive: 8.26%
COc1ccccc1N1CCN(C(=O)CCS(=O)(=O)c2ccc3c(c2)oc(=O)n3C)CC1 | inactive: -23.7%
CCc1ccc(CNC(=O)Cn2nc(-c3ccc(C)cc3)ccc2=O)cc1 | inactive: -18.7%
COc1ccc(C)cc1NC(=O)CC1NCCNC1=O (configuration not stated) | inactive: -8.51%
Cc1cc(C)c2c(=O)cc(C(=O)Nc3sc4c(c3C(=O)NCC3CCCO3)CCCC4)oc2c1 (configuration not stated) | inactive: 8.85%
Cc1ccc(Nc2nnc(-c3ccc(C)c(S(=O)(=O)N4CCOCC4)c3)c3ccccc23)cc1 | inactive: -7.83%
COCCNC(=O)c1ccc2nc(Cc3ccccc3)oc2c1 | inactive: -3.81%
CC(C)N(CCCNC(=O)Cn1ncc2c([nH]c3ccccc32)c1=O)Cc1ccccc1 | inactive: -0.721%
CCC(=O)C1=C(c2ccc(OC)c(OC)c2)N(C(=O)CC)n2c(nnc2-c2ccc(C)cc2)S1 | inactive: -22.2%
COc1ccc(-c2nc(CS(=O)(=O)CC(=O)NCCc3ccc(C)cc3)c(C)o2)cc1 | inactive: -5.92%
CCOC(=O)c1ccc(NC(=O)CSc2nc3ccccc3c(=O)n2CCC(=O)NC2CCCCC2)cc1 | inactive: -0.748%
CC(=O)c1ccc(N2CCN(c3ccc4cc(S(=O)(=O)N5CCCCC5)ccc4n3)CC2)cc1 | inactive: -17.1%
CC(=O)c1cc(-c2ccccc2)n(CC(=O)Nc2ccc(C)c(C)c2)c1C | inactive: -1.15%
COc1ccc(OC)c(CNS(=O)(=O)c2ccc(-c3coc(C)n3)cc2)c1 | inactive: 16.5%
CCOc1ccc(CNC(=O)CS(=O)(=O)c2cccc3nsnc23)cc1 | inactive: 14.3%
